Test results: the supplement of paper PMC8728848
The other results are listed elsewhere or left out.

Legend:
Assay in all cases: glycan array binding signal (z-score within array); higher = stronger binding
Conditions in all cases: glycan notation: IUPAC condensed, linker removed
Fuc(a1-2)Gal = biological target: Fuc(a1-2)Gal
Procedure, shortened: (§1)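 The Consortium for Functional Glycomics database supplied 3228 glycan arrays, of which those lacking an available protein sequence were dropped. The binding signal, a within-array Z-score, was averaged across arrays of the same protein sequence and across linkers. Negative scores can be read as non-binding.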

Fuc(a1-2)Gal(b1-3)GalNAc = biological target: Fuc(a1-2)Gal(b1-3)GalNAc
Procedure, shortened: as §1

[1] = biological target: Fuc(a1-2)Gal(b1-3)GalNAc(a1-3)[Fuc(a1-2)]Gal(b1-4)Glc
Procedure, shortened: as §1

[2] = biological target: Fuc(a1-2)Gal(b1-3)GalNAc(a1-3)[Fuc(a1-2)]Gal(b1-4)GlcNAc
Procedure, shortened: as §1

[3] = biological target: Fuc(a1-2)Gal(b1-3)GalNAc(b1-3)Gal
Procedure, shortened: as §1

[4] = biological target: Fuc(a1-2)Gal(b1-3)GalNAc(b1-3)Gal(a1-4)Gal(b1-4)Glc
Procedure, shortened: as §1

[5] = biological target: Fuc(a1-2)Gal(b1-3)GalNAc(b1-3)Gal(b1-4)Glc
Procedure, shortened: as §1

[6] = biological target: Fuc(a1-2)Gal(b1-3)GalNAc(b1-4)[Neu5Ac(a2-3)]Gal(b1-4)Glc
Procedure, shortened: as §1

Fuc(a1-2)Gal(b1-3)GlcNAc = biological target: Fuc(a1-2)Gal(b1-3)GlcNAc
Procedure, shortened: as §1

[7] = biological target: Fuc(a1-2)Gal(b1-3)GlcNAc(b1-2)Man(a1-3)[Fuc(a1-2)Gal(b1-3)GlcNAc(b1-2)Man(a1-6)]Man(b1-4)GlcNAc(b1-4)GlcNAc
Procedure, shortened: as §1

[8] = biological target: Fuc(a1-2)Gal(b1-3)GlcNAc(b1-2)Man(a1-3)[Fuc(a1-2)Gal(b1-3)GlcNAc(b1-2)Man(a1-6)]Man(b1-4)GlcNAc(b1-4)[Fuc(a1-6)]GlcNAc
Procedure, shortened: as §1

[9] = biological target: Fuc(a1-2)Gal(b1-3)GlcNAc(b1-3)Gal(b1-4)Glc
Procedure, shortened: as §1

[10] = biological target: Fuc(a1-2)Gal(b1-3)GlcNAc(b1-3)GalNAc
Procedure, shortened: as §1

[11] = biological target: Fuc(a1-2)Gal(b1-3)GlcNAc(b1-3)[Fuc(a1-2)Gal(b1-3)GlcNAc(b1-6)]GalNAc
Procedure, shortened: as §1

[12] = biological target: Fuc(a1-2)Gal(b1-3)GlcNAc(b1-3)[Fuc(a1-3)[Gal(b1-4)]GlcNAc(b1-6)]Gal(b1-4)Glc
Procedure, shortened: as §1

[13] = biological target: Fuc(a1-2)Gal(b1-3)GlcNAc(b1-3)[Gal(b1-4)GlcNAc(b1-6)]Gal(b1-4)Glc
Procedure, shortened: as §1

[14] = biological target: Fuc(a1-2)Gal(b1-3)GlcNAc(b1-3)[Neu5Ac(a2-6)Gal(b1-4)GlcNAc(b1-6)]Gal(b1-4)Glc
Procedure, shortened: as §1

[15] = biological target: Fuc(a1-2)Gal(b1-3)GlcNAc6S
Procedure, shortened: as §1

[16] = biological target: Fuc(a1-2)Gal(b1-3)[Fuc(a1-4)]GlcNAc
Procedure, shortened: as §1

[17] = biological target: Fuc(a1-2)Gal(b1-3)[Fuc(a1-4)]GlcNAc(b1-2)Man(a1-3)[Fuc(a1-2)Gal(b1-3)[Fuc(a1-4)]GlcNAc(b1-2)Man(a1-3)]Man(b1-4)GlcNAc(b1-4)GlcNAc
Procedure, shortened: as §1

[18] = biological target: Fuc(a1-2)Gal(b1-3)[Fuc(a1-4)]GlcNAc(b1-2)Man(a1-3)[Fuc(a1-2)Gal(b1-3)[Fuc(a1-4)]GlcNAc(b1-2)Man(a1-6)]Man(b1-4)GlcNAc(b1-4)GlcNAc
Procedure, shortened: as §1

[19] = biological target: Fuc(a1-2)Gal(b1-3)[Fuc(a1-4)]GlcNAc(b1-2)Man(a1-3)[Fuc(a1-2)Gal(b1-3)[Fuc(a1-4)]GlcNAc(b1-2)Man(a1-6)]Man(b1-4)GlcNAc(b1-4)[Fuc(a1-6)]GlcNAc(b1-4)[Fuc(a1-6)]GlcNAc
Procedure, shortened: as §1

[20] = biological target: Fuc(a1-2)Gal(b1-3)[Fuc(a1-4)]GlcNAc(b1-3)[Fuc(a1-3)[Gal(b1-4)]GlcNAc(b1-6)]Gal(b1-4)Glc
Procedure, shortened: as §1

[21] = biological target: Fuc(a1-2)Gal(b1-3)[Fuc(a1-4)]GlcNAc(b1-3)[Gal(b1-4)GlcNAc(b1-6)]Gal(b1-4)Glc
Procedure, shortened: as §1

[22] = biological target: Fuc(a1-2)Gal(b1-4)Fuc(a1-3)]GlcNAc(b1-2)Man(a1-3)[Fuc(a1-2)Gal(b1-4)[Fuc(a1-3)]GlcNAc(b1-2)Man(a1-6)]Man(b1-4)GlcNAc(b1-4)GlcNAc
Procedure, shortened: as §1

Fuc(a1-2)Gal(b1-4)Glc = biological target: Fuc(a1-2)Gal(b1-4)Glc
Procedure, shortened: as §1

Fuc(a1-2)Gal(b1-4)Glc6S = biological target: Fuc(a1-2)Gal(b1-4)Glc6S
Procedure, shortened: as §1

Fuc(a1-2)Gal(b1-4)GlcNAc = biological target: Fuc(a1-2)Gal(b1-4)GlcNAc
Procedure, shortened: as §1

[23] = biological target: Fuc(a1-2)Gal(b1-4)GlcNAc(b1-2)Man
Procedure, shortened: as §1

[24] = biological target: Fuc(a1-2)Gal(b1-4)GlcNAc(b1-2)Man(a1-3)[Fuc(a1-2)Gal(b1-4)GlcNAc(b1-2)Man(a1-6)]Man(b1-4)GlcNAc(b1-4)GlcNAc
Procedure, shortened: as §1

[25] = biological target: Fuc(a1-2)Gal(b1-4)GlcNAc(b1-2)Man(a1-3)[Fuc(a1-2)Gal(b1-4)GlcNAc(b1-2)Man(a1-6)]Man(b1-4)GlcNAc(b1-4)[Fuc(a1-6)]GlcNAc
Procedure, shortened: as §1

[26] = biological target: Fuc(a1-2)Gal(b1-4)GlcNAc(b1-2)[Fuc(a1-2)Gal(b1-4)GlcNAc(b1-4)]Man(a1-3)[Fuc(a1-2)Gal(b1-4)GlcNAc(b1-2)Man(a1-6)]Man(b1-4)GlcNAc(b1-4)GlcNAc
Procedure, shortened: as §1

[27] = biological target: Fuc(a1-2)Gal(b1-4)GlcNAc(b1-3)Gal(b1-4)GlcNAc
Procedure, shortened: as §1

[28] = biological target: Fuc(a1-2)Gal(b1-4)GlcNAc(b1-3)Gal(b1-4)GlcNAc(b1-2)Man(a1-3)[Fuc(a1-2)Gal(b1-4)GlcNAc(b1-3)Gal(b1-4)GlcNAc(b1-2)Man(a1-6)]Man(b1-4)GlcNAc(b1-4)GlcNAc
Procedure, shortened: as §1

[29] = biological target: Fuc(a1-2)Gal(b1-4)GlcNAc(b1-3)Gal(b1-4)GlcNAc(b1-3)Gal(b1-4)GlcNAc
Procedure, shortened: as §1

[30] = biological target: Fuc(a1-2)Gal(b1-4)GlcNAc(b1-3)GalNAc
Procedure, shortened: as §1

[31] = biological target: Fuc(a1-2)Gal(b1-4)GlcNAc(b1-3)[Fuc(a1-2)Gal(b1-4)GlcNAc(b1-6)]GalNAc
Procedure, shortened: as §1

[32] = biological target: Fuc(a1-2)Gal(b1-4)GlcNAc(b1-3)[Fuc(a1-3)[Gal(b1-4)]GlcNAc(b1-6)]Gal(b1-4)Glc
Procedure, shortened: as §1

[33] = biological target: Fuc(a1-2)Gal(b1-4)GlcNAc(b1-6)GalNAc
Procedure, shortened: as §1

[34] = biological target: Fuc(a1-2)Gal(b1-4)GlcNAc6S
Procedure, shortened: as §1

[35] = biological target: Fuc(a1-2)Gal(b1-4)[Fuc(a1-3)]GalNAc(b1-3)Gal(b1-4)[Fuc(a1-3)]GlcNAc
Procedure, shortened: as §1

[36] = biological target: Fuc(a1-2)Gal(b1-4)[Fuc(a1-3)]GalNAc(b1-3)Gal(b1-4)[Fuc(a1-3)]GlcNAc(b1-3)Gal(b1-4)[Fuc(a1-3)]GalNAc
Procedure, shortened: as §1

[37] = biological target: Fuc(a1-2)Gal(b1-4)[Fuc(a1-3)]GlcNAc
Procedure, shortened: as §1

[38] = biological target: Fuc(a1-2)Gal(b1-4)[Fuc(a1-3)]GlcNAc(b1-2)Man(a1-3)[Fuc(a1-2)Gal(b1-4)[Fuc(a1-3)]GlcNAc(b1-2)Man(a1-6)]Man(b1-4)GlcNAc(b1-4)GlcNAc
Procedure, shortened: as §1

[39] = biological target: Fuc(a1-2)Gal(b1-4)[Fuc(a1-3)]GlcNAc(b1-2)Man(a1-3)[Fuc(a1-2)Gal(b1-4)[Fuc(a1-3)]GlcNAc(b1-2)Man(a1-6)]Man(b1-4)GlcNAc(b1-4)[Fuc(a1-6)]GlcNAc
Procedure, shortened: as §1

B1: Epa1-NP (Candida glabrata), Q6VBJ0 (protein)
chain: MILNPALFLNKCVCIYTTLILLLLTNGGYATSSNDISLASKDPTTFPLGCSPDITTPKKGLSMELYSYDFRKKGSYPCWDAAYLDPNYPRTGYKSHRLLAKVDGVTGNINFYYHATKGCTPQLGHLPASYNYPKPLTMTNFTMLLYGYFRPKVTGFHTFTISADDLLFVNFGAGNAFDCCRRDSSADHFGNYQAYAIWGSKTAKDELTVHLDAGVYYPIRLFYNNREYDGALSFTFKTESNENTVSDFSEYFFSLDDTEEGCPGLISYDSSCASVKTSKIIGIDYHTETPNENLVPITKTIYHLGIPCTGTTTTPLCGSGFYDPLANKCVTINTSSTSSVTKTTSHTTSKEVSFHSSISSQKTLIPKSIPSPYGPIKSQSIPTEMETSSEISSSEYAFSDVISTPSHSPYTKKHSSLNSSSYTSTVIHSLTSYSISQGIFSTSLSEQNITSKSSTDKFSTATSMSNNITQSSIIISQFSTNNENYTTTSMHTSSDKISTETLNNSISTTTSILFSNSSTILKNNTTIISSDKDTHYHPVNPTIVCSTNKTEIICASITQPSISNSNNHWSSSVLKFNSTTVRSTLPSSAGSNETSINVPFSSSTESNTSTSSTSTSNSKMVRSTLPSSAGSNETSISVPFSSSTESNTSTSSTSTSNSKMVRSTLPSSAGSNETSINVPFSSSTESNTSTSSTSTSNSKTVRSTPFSSAGIIMTSLSQRNNKSASSYASSNSKCYNTADSCRKVHSTPSYLLTSSYTSEGVDYDCSLVSTKLKINDTNCVNNKHTTKSCLKTSVTTTIPTLEIKTARKSSSNTIGLHSYPTSSPNKSISSAPIIGYISSFKTIKTASPSYQTSDLTTITTITSLNNPGSTAVENTHESNDKSRKTSSNDISSKHSVIKETKDAVESSNKSHQTNTLKCSSIIIASSSHNSYESLGGTTLTLTLSKVYSPQNNDTLPFLEISEVNPSRTVLPESSKMMQYLTSTEERNKTARNTIATNIVSISTFHFEGEGNAIRMGYTQLLLMLIGIIVMNIGT
Fuc(a1-2)Gal
  glycan array binding signal (z-score): -0.331
Fuc(a1-2)Gal(b1-3)GalNAc
  glycan array binding signal (z-score): -0.36
[1]
  glycan array binding signal (z-score): -0.269
[2]
  glycan array binding signal (z-score): -0.21
[3]
  glycan array binding signal (z-score): -0.281
[4]
  glycan array binding signal (z-score): -0.305
[5]
  glycan array binding signal (z-score): -0.554
[6]
  glycan array binding signal (z-score): -0.171
Fuc(a1-2)Gal(b1-3)GlcNAc
  glycan array binding signal (z-score): -0.277
[7]
  glycan array binding signal (z-score): -0.291
[8]
  glycan array binding signal (z-score): -0.257
[9]
  glycan array binding signal (z-score): -0.296
[10]
  glycan array binding signal (z-score): -0.286
[11]
  glycan array binding signal (z-score): -0.255
[12]
  glycan array binding signal (z-score): -0.241
[13]
  glycan array binding signal (z-score): 0.139
[14]
  glycan array binding signal (z-score): -0.203
[15]
  glycan array binding signal (z-score): -0.241
[16]
  glycan array binding signal (z-score): -0.33
[17]
  glycan array binding signal (z-score): -0.267
[18]
  glycan array binding signal (z-score): -0.047
[19]
  glycan array binding signal (z-score): -0.282
[20]
  glycan array binding signal (z-score): -0.148
[21]
  glycan array binding signal (z-score): 0.18
[22]
  glycan array binding signal (z-score): -0.258
Fuc(a1-2)Gal(b1-4)Glc
  glycan array binding signal (z-score): -0.301
Fuc(a1-2)Gal(b1-4)Glc6S
  glycan array binding signal (z-score): -0.317
Fuc(a1-2)Gal(b1-4)GlcNAc
  glycan array binding signal (z-score): -0.325
[23]
  glycan array binding signal (z-score): -0.279
[24]
  glycan array binding signal (z-score): -0.274
[25]
  glycan array binding signal (z-score): -0.273
[26]
  glycan array binding signal (z-score): -0.29
[27]
  glycan array binding signal (z-score): -0.331
[28]
  glycan array binding signal (z-score): -0.277
[29]
  glycan array binding signal (z-score): -0.345
[30]
  glycan array binding signal (z-score): -0.262
[31]
  glycan array binding signal (z-score): -0.237
[32]
  glycan array binding signal (z-score): -0.283
[33]
  glycan array binding signal (z-score): -0.283
[34]
  glycan array binding signal (z-score): 0.048
[35]
  glycan array binding signal (z-score): -0.555
[36]
  glycan array binding signal (z-score): -0.55
[37]
  glycan array binding signal (z-score): -0.332
[38]
  glycan array binding signal (z-score): 0.119
[39]
  glycan array binding signal (z-score): -0.273
